# The supplement of paper PMC8728848
# This is one part of the list.
# B1: AMA (Arum maculatun) (protein)
# chain: MAKLLLLLLLPAIVGLAVPRSAAAVGSNYMLSGETLNTDGRLTNGELTLIMQVDCNLVLYHGGWQSNTANNGRDCKLTLTDFGELVIKSGTGSTVWSSGSKQSMKGNYAAVVHPEGRLVIYGPSVFKINPSGAGLNGLPLRNIPLTNNMLFSGQVLYGDGTLSARNHKLVMQGDCNMVLYGGKYGWQSNTHGNGKYCFAMLTHKGELVIRDDDFKSVWSSKSSSKQGDYVFILQDDSLAIIYGPAVFSTGSKKMISMVTN
# Experiments:
# Experiment in all cases: glycan array binding signal (z-score within array); higher = stronger binding
# Details in all cases: glycan notation: IUPAC condensed, linker removed
# [1] = target: GlcNAc(b1-2)[GlcNAc(b1-4)]Man(a1-3)[GlcNAc(b1-4)][GlcNAc(b1-2)Man(a1-6)]Man(b1-4)GlcNAc(b1-4)GlcNAc
# In short: (§1)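 Glycan array data came from 3228 arrays in the Consortium for Functional Glycomics database, and only arrays with an available protein sequence were kept. Glycan names were put into IUPAC-condensed notation, and columns mapping to the same glycan were averaged. The binding signal is a within-array Z-score, averaged across arrays of one protein sequence run at different concentrations or buffers and across linkers. A negative Z-score can be read as non-binding.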
# [2] = target: GlcNAc(b1-2)[GlcNAc(b1-4)]Man(a1-3)[GlcNAc(b1-4)][GlcNAc(b1-2)[GlcNAc(b1-6)]Man(a1-6)]Man(b1-4)GlcNAc(b1-4)GlcNAc
# In short: as §1
# [3] = target: GlcNAc(b1-2)[GlcNAc(b1-4)]Man(a1-3)[GlcNAc(b1-4)][GlcNAc(b1-2)[GlcNAc(b1-6)]Man(a1-6)]Man(b1-4)GlcNAc(b1-4)[Fuc(a1-6)]GlcNAc
# In short: as §1
# [4] = target: GlcNAc(b1-2)[GlcNAc(b1-6)]Man(a1-6)[GlcNAc(b1-2)Man(a1-3)]Man(b1-4)GlcNAc(b1-4)GlcNAc
# In short: as §1
# [5] = target: GlcNAc(b1-2)[GlcNAc(b1-6)]Man(a1-6)[GlcNAc(b1-2)Man(a1-3)]Man(b1-4)GlcNAc(b1-4)[Fuc(a1-6)]GlcNAc
# In short: as §1
# [6] = target: GlcNAc(b1-2)[GlcNAc(b1-6)]Man(a1-6)[GlcNAc(b1-4)][GlcNAc(b1-2)Man(a1-3)]Man(b1-4)GlcNAc(b1-4)GlcNAc
# In short: as §1
# GlcNAc(b1-3)Fuc = target: GlcNAc(b1-3)Fuc
# In short: as §1
# GlcNAc(b1-3)Gal = target: GlcNAc(b1-3)Gal
# In short: as §1
# [7] = target: GlcNAc(b1-3)Gal(b1-3)GalNAc
# In short: as §1
# GlcNAc(b1-3)Gal(b1-4)Glc = target: GlcNAc(b1-3)Gal(b1-4)Glc
# In short: as §1
# [8] = target: GlcNAc(b1-3)Gal(b1-4)GlcNAc
# In short: as §1
# [9] = target: GlcNAc(b1-3)Gal(b1-4)GlcNAc(b1-2)Man(a1-3)[GlcNAc(b1-3)Gal(b1-4)GlcNAc(b1-2)Man(a1-6)]Man(b1-4)GlcNAc(b1-4)GlcNAc
# In short: as §1
# [10] = target: GlcNAc(b1-3)Gal(b1-4)GlcNAc(b1-2)Man(a1-3)[GlcNAc(b1-3)Gal(b1-4)GlcNAc(b1-2)Man(a1-6)]Man(b1-4)GlcNAc(b1-4)[Fuc(a1-6)]GlcNAc
# In short: as §1
# [11] = target: GlcNAc(b1-3)Gal(b1-4)GlcNAc(b1-2)[GlcNAc(b1-3)Gal(b1-4)GlcNAc(b1-6)]Man(a1-6)[GlcNAc(b1-3)Gal(b1-4)GlcNAc(b1-2)Man(a1-3)]Man(b1-4)GlcNAc(b1-4)GlcNAc
# In short: as §1
# [12] = target: GlcNAc(b1-3)Gal(b1-4)GlcNAc(b1-3)Gal(b1-4)GlcNAc
# In short: as §1
# [13] = target: GlcNAc(b1-3)Gal(b1-4)GlcNAc(b1-3)Gal(b1-4)GlcNAc(b1-2)Man(a1-3)[GlcNAc(b1-3)Gal(b1-4)GlcNAc(b1-3)Gal(b1-4)GlcNAc(b1-2)Man(a1-6)]Man(b1-4)GlcNAc(b1-4)GlcNAc
# In short: as §1
# [14] = target: GlcNAc(b1-3)Gal(b1-4)GlcNAc(b1-3)Gal(b1-4)GlcNAc(b1-2)Man(a1-3)[GlcNAc(b1-3)Gal(b1-4)GlcNAc(b1-3)Gal(b1-4)GlcNAc(b1-2)Man(a1-6)]Man(b1-4)GlcNAc(b1-4)[Fuc(a1-6)]GlcNAc
# In short: as §1
# [15] = target: GlcNAc(b1-3)Gal(b1-4)GlcNAc(b1-3)Gal(b1-4)GlcNAc(b1-2)[GlcNAc(b1-3)Gal(b1-4)GlcNAc(b1-3)Gal(b1-4)GlcNAc(b1-6)]Man(a1-6)[GlcNAc(b1-3)Gal(b1-4)GlcNAc(b1-3)Gal(b1-4)GlcNAc(b1-2)Man(a1-3)]Man(b1-4)GlcNAc(b1-4)[Fuc(a1-6)]GlcNAc
# In short: as §1
# [16] = target: GlcNAc(b1-3)Gal(b1-4)GlcNAc(b1-3)Gal(b1-4)GlcNAc(b1-3)Gal(b1-4)GlcNAc(b1-2)Man(a1-3)[GlcNAc(b1-3)Gal(b1-4)GlcNAc(b1-3)Gal(b1-4)GlcNAc(b1-3)Gal(b1-4)GlcNAc(b1-2)Man(a1-6)]Man(b1-4)GlcNAc(b1-4)GlcNAc
# In short: as §1
# [17] = target: GlcNAc(b1-3)Gal(b1-4)GlcNAc(b1-3)Gal(b1-4)GlcNAc(b1-3)Gal(b1-4)GlcNAc(b1-2)Man(a1-3)[GlcNAc(b1-3)Gal(b1-4)GlcNAc(b1-3)Gal(b1-4)GlcNAc(b1-3)Gal(b1-4)GlcNAc(b1-2)Man(a1-6)]Man(b1-4)GlcNAc(b1-4)[Fuc(a1-6)]GlcNAc
# In short: as §1
# [18] = target: GlcNAc(b1-3)Gal(b1-4)GlcNAc(b1-3)Gal(b1-4)GlcNAc(b1-3)Gal(b1-4)GlcNAc(b1-2)[GlcNAc(b1-3)Gal(b1-4)GlcNAc(b1-3)Gal(b1-4)GlcNAc(b1-3)Gal(b1-4)GlcNAc(b1-6)]Man(a1-6)[GlcNAc(b1-3)Gal(b1-4)GlcNAc(b1-3)Gal(b1-4)GlcNAc(b1-3)Gal(b1-4)GlcNAc(b1-2)Man(a1-3)]Man(b1-4)GlcNAc(b1-4)[Fuc(a1-6)]GlcNAc
# In short: as §1
# [19] = target: GlcNAc(b1-3)Gal(b1-4)GlcNAc(b1-3)Gal(b1-4)GlcNAc(b1-3)Gal(b1-4)GlcNAc(b1-3)Gal(b1-4)GlcNAc(b1-2)Man(a1-3)[GlcNAc(b1-3)Gal(b1-4)GlcNAc(b1-3)Gal(b1-4)GlcNAc(b1-3)Gal(b1-4)GlcNAc(b1-3)Gal(b1-4)GlcNAc(b1-2)Man(a1-6)]Man(b1-4)GlcNAc(b1-4)GlcNAc
# In short: as §1
# [20] = target: GlcNAc(b1-3)Gal(b1-4)GlcNAc(b1-3)Gal(b1-4)GlcNAc(b1-3)Gal(b1-4)GlcNAc(b1-3)Gal(b1-4)GlcNAc(b1-2)Man(a1-3)[GlcNAc(b1-3)Gal(b1-4)GlcNAc(b1-3)Gal(b1-4)GlcNAc(b1-3)Gal(b1-4)GlcNAc(b1-3)Gal(b1-4)GlcNAc(b1-2)Man(a1-6)]Man(b1-4)GlcNAc(b1-4)[Fuc(a1-6)]GlcNAc
# In short: as §1
# [21] = target: GlcNAc(b1-3)Gal(b1-4)GlcNAc(b1-3)Gal(b1-4)GlcNAc(b1-3)Gal(b1-4)GlcNAc(b1-3)Gal(b1-4)GlcNAc(b1-2)[GlcNAc(b1-3)Gal(b1-4)GlcNAc(b1-3)Gal(b1-4)GlcNAc(b1-3)Gal(b1-4)GlcNAc(b1-3)Gal(b1-4)GlcNAc(b1-6)]Man(a1-6)[GlcNAc(b1-3)Gal(b1-4)GlcNAc(b1-3)Gal(b1-4)GlcNAc(b1-3)Gal(b1-4)GlcNAc(b1-3)Gal(b1-4)GlcNAc(b1-2)Man(a1-3)]Man(b1-4)GlcNAc(b1-4)[Fuc(a1-6)]GlcNAc
# In short: as §1
# [22] = target: GlcNAc(b1-3)Gal(b1-4)GlcNAc(b1-3)Gal(b1-4)GlcNAc(b1-3)GalNAc
# In short: as §1
# [23] = target: GlcNAc(b1-3)Gal(b1-4)GlcNAc(b1-3)GalNAc
# In short: as §1
# [24] = target: GlcNAc(b1-3)Gal(b1-4)GlcNAc(b1-3)[GlcNAc(b1-3)Gal(b1-4)GlcNAc(b1-3)]GalNAc
# In short: as §1
# [25] = target: GlcNAc(b1-3)Gal(b1-4)GlcNAc(b1-6)[Gal(b1-3)]GalNAc
# In short: as §1
# [26] = target: GlcNAc(b1-3)Gal(b1-4)GlcNAc(b1-6)[GlcNAc(b1-3)Gal(b1-3)]GalNAc
# In short: as §1
# [27] = target: GlcNAc(b1-3)Gal(b1-4)GlcNAc(b1-6)[GlcNAc(b1-3)]Gal(b1-4)GlcNAc
# In short: as §1
# GlcNAc(b1-3)GalNAc = target: GlcNAc(b1-3)GalNAc
# In short: as §1
# GlcNAc(b1-3)Man = target: GlcNAc(b1-3)Man
# In short: as §1
# [28] = target: GlcNAc(b1-3)[GlcNAc(b1-4)][GlcNAc(b1-6)]GlcNAc
# In short: as §1
# [29] = target: GlcNAc(b1-3)[GlcNAc(b1-6)]Gal(b1-4)GlcNAc
# In short: as §1
# [30] = target: GlcNAc(b1-3)[GlcNAc(b1-6)]GalNAc
# In short: as §1
# [31] = target: GlcNAc(b1-3)[GlcNAc(b1-6)]GlcNAc(b1-4)GlcNAc
# In short: as §1
# [32] = target: GlcNAc(b1-4)Gal(b1-4)GlcNAc
# In short: as §1
# GlcNAc(b1-4)GlcNAc = target: GlcNAc(b1-4)GlcNAc
# In short: as §1
# [33] = target: GlcNAc(b1-4)GlcNAc(b1-4)GlcNAc
# In short: as §1
# [34] = target: GlcNAc(b1-4)GlcNAc(b1-4)GlcNAc(b1-4)GlcNAc(b1-4)GlcNAc
# In short: as §1
# [35] = target: GlcNAc(b1-4)GlcNAc(b1-4)GlcNAc(b1-4)GlcNAc(b1-4)GlcNAc(b1-4)GlcNAc
# In short: as §1
# [36] = target: GlcNAc(b1-4)[GlcNAc(b1-6)]GalNAc
# In short: as §1
# [37] = target: GlcNAc(b1-6)Gal(b1-4)GlcNAc
# In short: as §1
# GlcNAc(b1-6)GalNAc = target: GlcNAc(b1-6)GalNAc
# In short: as §1
# [38] = target: GlcNAc6S(b1-3)Gal(b1-4)GlcNAc
# In short: as §1
binder,measurement,setting,value
B1,glycan array binding signal (z-score),[1],-0.212
same,glycan array binding signal (z-score),[2],-0.209
same,glycan array binding signal (z-score),[3],-0.218
same,glycan array binding signal (z-score),[4],-0.215
same,glycan array binding signal (z-score),[5],-0.214
same,glycan array binding signal (z-score),[6],-0.215
same,glycan array binding signal (z-score),GlcNAc(b1-3)Fuc,-0.209
same,glycan array binding signal (z-score),GlcNAc(b1-3)Gal,-0.211
same,glycan array binding signal (z-score),[7],-0.212
same,glycan array binding signal (z-score),GlcNAc(b1-3)Gal(b1-4)Glc,-0.218
same,glycan array binding signal (z-score),[8],-0.217
same,glycan array binding signal (z-score),[9],1.1
same,glycan array binding signal (z-score),[10],2.21
same,glycan array binding signal (z-score),[11],-0.18
same,glycan array binding signal (z-score),[12],-0.21
same,glycan array binding signal (z-score),[13],0.277
same,glycan array binding signal (z-score),[14],1.22
same,glycan array binding signal (z-score),[15],0.003
same,glycan array binding signal (z-score),[16],0.307
same,glycan array binding signal (z-score),[17],0.769
same,glycan array binding signal (z-score),[18],0.035
same,glycan array binding signal (z-score),[19],0.215
same,glycan array binding signal (z-score),[20],0.572
same,glycan array binding signal (z-score),[21],0.094
same,glycan array binding signal (z-score),[22],-0.212
same,glycan array binding signal (z-score),[23],-0.218
same,glycan array binding signal (z-score),[24],-0.209
same,glycan array binding signal (z-score),[25],-0.211
same,glycan array binding signal (z-score),[26],-0.217
same,glycan array binding signal (z-score),[27],-0.207
same,glycan array binding signal (z-score),GlcNAc(b1-3)GalNAc,-0.22
same,glycan array binding signal (z-score),GlcNAc(b1-3)Man,-0.213
same,glycan array binding signal (z-score),[28],-0.217
same,glycan array binding signal (z-score),[29],-0.219
same,glycan array binding signal (z-score),[30],-0.206
same,glycan array binding signal (z-score),[31],-0.221
same,glycan array binding signal (z-score),[32],-0.214
same,glycan array binding signal (z-score),GlcNAc(b1-4)GlcNAc,-0.179
same,glycan array binding signal (z-score),[33],-0.148
same,glycan array binding signal (z-score),[34],-0.169
same,glycan array binding signal (z-score),[35],-0.166
same,glycan array binding signal (z-score),[36],-0.215
same,glycan array binding signal (z-score),[37],-0.216
same,glycan array binding signal (z-score),GlcNAc(b1-6)GalNAc,-0.21
same,glycan array binding signal (z-score),[38],-0.202
